# In all, about 350,000 compounds went through this assay and about 31,000 (8.9%) were called active. Inconclusive means that the source gave no clear call. Such entries were picked first, then a sample of the others. The call rests on the fitted dose curve; in most records, active means well fitted inhibition curve with a large enough effect; inconclusive means small, poorly fitted or top-dose-only effect; inactive means no such curve, though single readings can be large or run the other way. A potency beside an inconclusive call is a rough fit, not a confirmed value.
# Target: Histone-lysine N-methyltransferase EHMT2 (Homo sapiens) (UniProt Q96KQ7)
# Chain of UniProt Q96KQ7 (Q96KQ7 whole entry, looked up): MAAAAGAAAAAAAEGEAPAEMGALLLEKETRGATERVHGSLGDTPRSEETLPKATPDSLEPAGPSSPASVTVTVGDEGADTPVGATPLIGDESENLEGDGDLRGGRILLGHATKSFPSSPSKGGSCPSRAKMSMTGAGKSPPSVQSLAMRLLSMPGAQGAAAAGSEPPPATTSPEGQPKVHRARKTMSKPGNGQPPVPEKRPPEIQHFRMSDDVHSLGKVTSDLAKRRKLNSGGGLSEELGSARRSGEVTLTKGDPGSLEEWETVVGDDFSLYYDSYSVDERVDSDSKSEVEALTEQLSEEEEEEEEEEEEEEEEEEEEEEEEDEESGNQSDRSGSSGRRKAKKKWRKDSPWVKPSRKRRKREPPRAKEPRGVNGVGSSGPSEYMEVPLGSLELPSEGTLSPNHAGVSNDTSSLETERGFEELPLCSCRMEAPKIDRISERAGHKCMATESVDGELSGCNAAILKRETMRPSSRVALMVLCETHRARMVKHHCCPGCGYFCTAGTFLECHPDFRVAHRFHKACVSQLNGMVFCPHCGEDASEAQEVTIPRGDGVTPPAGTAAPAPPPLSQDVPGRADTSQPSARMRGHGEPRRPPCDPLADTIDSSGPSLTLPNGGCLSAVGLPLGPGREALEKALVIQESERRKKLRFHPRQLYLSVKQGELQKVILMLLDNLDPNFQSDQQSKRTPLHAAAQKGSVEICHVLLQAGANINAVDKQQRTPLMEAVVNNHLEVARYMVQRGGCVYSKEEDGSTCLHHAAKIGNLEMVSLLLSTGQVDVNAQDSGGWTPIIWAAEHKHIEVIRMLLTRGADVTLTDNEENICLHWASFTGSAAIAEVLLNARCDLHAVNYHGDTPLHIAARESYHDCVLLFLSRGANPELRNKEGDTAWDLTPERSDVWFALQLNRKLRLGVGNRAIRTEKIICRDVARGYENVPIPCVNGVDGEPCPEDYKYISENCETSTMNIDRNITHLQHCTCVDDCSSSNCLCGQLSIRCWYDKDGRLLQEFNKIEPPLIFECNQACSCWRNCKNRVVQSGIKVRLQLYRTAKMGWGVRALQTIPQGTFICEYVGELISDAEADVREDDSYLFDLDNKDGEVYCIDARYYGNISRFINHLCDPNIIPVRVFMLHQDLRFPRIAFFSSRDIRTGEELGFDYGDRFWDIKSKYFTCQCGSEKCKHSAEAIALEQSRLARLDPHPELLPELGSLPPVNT
# Assay: qHTS Assay for Inhibitors of Histone Lysine Methyltransferase G9a; further: nearly all actives have a fitted effect of over 75% in size
# Conditions: G9a H3K9 monomethylation, AlphaScreen, 2 h; activity, negative = inhibition: at 59 µM (top of the series) unless noted
# How it was run: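 AlphaScreen read-out: biotin-H3K9 peptide (500 nM) methylation by 20 nM enzyme with 20 uM SAM, 2 h at room temperature after 15 min compound preincubation; anti-monomethyl H3K9 antibody plus donor/acceptor beads, 10 min dark.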
# On the % scale 0 is the no-effect control and ±100 the full control effect; potency means the concentration at half of the fitted maximal effect; tags describe the fitted curve by direction and shape.
SMILES,Potency,"activity, negative = inhibition"
COCCNC(=O)CCn1c(=O)c2cc(OC)c(OC)cc2n(CC(=O)Nc2ccc(F)c(Cl)c2)c1=O,inactive,–
CC1CCN(S(=O)(=O)c2ccc(NC(=O)C3CCN(C(=O)c4ccco4)CC3)cc2)CC1,"inconclusive: 50.1 µM [inhibitor, partial curve]",–
COc1ccc(N2CCN(C(=O)Cn3cncn3)CC2)cc1,"inconclusive: 4.47 µM [inhibitor, partial curve, poor fit]",–
O=C(NCCN1CCOCC1)c1cccc(NS(=O)(=O)c2ccc(Br)cc2)c1,"inconclusive: 56.2 µM [inhibitor, partial curve, poor fit]",–
Cc1cccc(C2CC3(CC(C)(C)NC(=S)N3)Oc3cc(O)ccc32)c1 (stereo not drawn),"inconclusive: 56.2 µM [inhibitor, partial curve, poor fit]",–
CC(=O)N1CCc2c(sc3c2c(=O)n(-c2ccccc2)c(=O)n3CC(=O)c2ccc(Cl)cc2)C1,inactive,–
Cc1cc2c(cc1C)C(c1ccsc1)CC(=O)N2 (stereo not drawn),"inconclusive: 79.4 µM [inhibitor, partial curve, poor fit]",–
O=[N+]([O-])c1ccc(Sc2ncc3ccccn23)nc1,"inconclusive: 79.4 µM [inhibitor, single point]",–
Cc1ccc(NC(=O)c2noc(C(C)C)c2[N+](=O)[O-])cc1,"inconclusive: 39.8 µM [inhibitor, partial curve, poor fit]",–
COc1ccc(C(O)(CC(C)C)C(CN2CCOCC2)c2ccccc2)cc1 (stereo not drawn),"inconclusive: 79.4 µM [inhibitor, single point]",–
COc1cc(C2CC(=O)Oc3cc(C)c(Br)c(C)c32)cc(OC)c1OC (stereo not drawn),inactive,–
O=C(CSc1ccccn1)Nc1ccc2c(c1)OCO2,"inconclusive: 79.4 µM [inhibitor, single point]",–
COCCN(C(=O)c1c(C)noc1C)c1c(N)n(CC(C)C)c(=O)[nH]c1=O,"inconclusive: 4.47 µM [inhibitor, single point]",–
Cn1c(C2=C(O)CN(c3ccccc3)C2=N)nc2ccccc21,inactive,–
C=CCOC(=O)/C(=C\C=C\c1ccccc1)NC(=O)c1ccccc1,"inconclusive: 89.1 µM [inhibitor, single point]",–
COc1ccc(C(=O)NCC2(N3CCCCC3)CCCCC2)cc1S(=O)(=O)N(C)C,"inconclusive: 79.4 µM [inhibitor, single point]",–
COc1ccc(-c2nc(CS(=O)CC(=O)NC(C)CCc3ccccc3)c(C)o2)cc1OC (stereo not drawn),"inconclusive: 89.1 µM [inhibitor, single point]",–
Cc1cc(C)c(C)c(OCCN2CCOCC2)c1,active: 79.4 µM,–
COc1ccc(N/N=C(\C#N)C(=N)N2CCOCC2)cc1,active: 28.2 µM,–
COC(=O)c1cc([N+](=O)[O-])ccc1N1CCN(Cc2ccccc2)CC1,"inconclusive: 35.5 µM [inhibitor, single point]",–
COCCN1C(=S)N[C@@H](c2ccccc2)C(C(=O)OC)=C1C,–,inactive: 20.7% [at 12.7 µM]
O=C(CN1CCCc2ccccc21)N/N=C/c1ccc(O)cc1O,active: 79.4 µM,–

SMILES,Potency,"activity, negative = inhibition"
O=C(NCC1CCCO1)c1cc(NS(=O)(=O)c2cccs2)cc(NS(=O)(=O)c2cccs2)c1 (stereo not drawn),inactive,–
COc1ccc(Cc2nnc(NC(=O)Nc3ccc(F)cc3)s2)cc1OC,inactive,–
COc1ccc(-n2c(Cn3nc(C(F)(F)F)cc3C)n[nH]c2=S)cc1,active: 7.94 µM,–
CCN(C(=O)c1ccc2c(c1)N(Cc1cccc(Cl)c1)C(=O)c1ccccc1S2=O)c1ccccc1 (stereo not drawn),inactive,–
CCC1CCCCN1S(=O)(=O)c1c(C)n(C)c(=O)n(C)c1=O (stereo not drawn),"inconclusive: 89.1 µM [inhibitor, partial curve, poor fit]",–
O=C(Cc1ccc(Cl)c(Cl)c1)Nc1ccc(S(=O)(=O)Nc2ncccn2)cc1,"inconclusive: 89.1 µM [inhibitor, single point]",–
COc1cccc2c(=O)n(CC(=O)Nc3ccc(F)cc3)ccc12,"inconclusive: 0.708 µM [inhibitor, partial curve, poor fit]",–
COc1ccc(CCNC(=O)Cn2nnc(C(=O)Nc3cccc(C)c3C)c2N)cc1OC,inactive,–
CCOC(=O)CC(=O)Nc1ccc(Br)cc1C(=O)O,"inconclusive: 56.2 µM [inhibitor, partial curve, poor fit]",–
Cc1cc(C)c2nc3s/c(=C/c4ccc5c(c4)n(C)c(=O)n5C)c(=O)n3c2c1,"inconclusive: 3.55 µM [inhibitor, partial curve, poor fit]",–
CCCOC(=O)c1ccc(NC(=O)Oc2ccccc2)cc1,–,inconclusive: -83.1% [inhibitor]
Cc1cccc(NC(=O)/C(C#N)=C\c2cc(C)n(-c3ccc(C(=O)O)cc3)c2C)c1,"inconclusive: 50.1 µM [inhibitor, partial curve]",–
CN(C)CCCNC(=O)/C(=N\O)c1ccccc1,active: 56.2 µM,–
C=CCC(C(=O)c1ccccc1)[N+](C)(C)CC=C (stereo not drawn),"inconclusive: 3.16 µM [inhibitor, partial curve, poor fit]",–
O=C(CN1CCCCCC1)Nc1ccc(Oc2ccccc2)cc1,"inconclusive: 50.1 µM [inhibitor, partial curve, poor fit]",–
COc1ccc(-c2csc(NC(=O)CCS(=O)(=O)c3ccccc3)n2)c(OC)c1,"inconclusive: 89.1 µM [inhibitor, single point]",–
CC(C)(C)C(=O)Nc1cc(-c2cccc(Br)c2)nn1-c1ccccc1,inactive,–
CC(=O)Nc1cccc(NC(=O)c2cc(-c3ccccn3)nc3ccc(Cl)cc23)c1,inactive,–
O=C1CCCC(O)=C1N=Nc1ccc(Cl)c(Cl)c1,"inconclusive: 44.7 µM [inhibitor, partial curve, poor fit]",–
N/C(=N\OS(=O)(=O)c1ccc(Cl)cc1)c1cccnc1,"inconclusive: 1.78 µM [inhibitor, partial curve, poor fit]",–
Cc1cccc(C)c1NC(=O)CS(=O)CC(=O)Nc1ccc(N2CCOCC2)cc1 (stereo not drawn),"inconclusive: 89.1 µM [inhibitor, single point]",–
